# Assay results from PubChem BioAssay AID504832 (National Center for Advancing Translational Sciences (NCATS), 2011).
# “And” between values parts separate entries of the source, which are not always exact repeats. Identical values can stand only once. Among all 310,000 compounds or so, about 18,000 (5.8%) were called active. This list was built around the results that the source calls inconclusive (neither active nor inactive); the mix of calls is not that of the screen. Calls follow the shape of the dose curve; as a rule, active = well fitted inhibition curve with a large enough effect; inconclusive = small, poorly fitted or top-dose-only effect, or another doubt; inactive = no such curve, though single readings can be large or run the other way. Potencies of inconclusive entries are left out as doubtful fits.
# Assay: Primary qHTS for delayed death inhibitors of the malarial parasite plastid, 48 hour incubation
# Conditions: P. falciparum luciferase growth in erythrocytes; series mostly up to 28.7 µM
# Procedure, shortened: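 Firefly luciferase activity from engineered P. falciparum reports growth; inhibitors lower the luminescent signal. Cultures contained 2% hematocrit erythrocytes at 0.1% final parasitemia.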
# Potency is read from the fitted curve at half-maximal effect; tags tell the direction and shape of the fitted curve.
row,Structure (SMILES),Potency
1,COc1cc(SC)ccc1C(=O)OCC(=O)NC1CC1,inactive
2,CC(NC(=O)COc1ccc(S(=O)(=O)N2CCOCC2)cc1)c1ccccc1 (configuration not stated),"inconclusive [inhibitor, single point]"
3,C=CCn1c(SCc2cc(=O)n3cc(C)ccc3n2)nnc1-c1cccc(C)c1,inactive
4,Cc1nc2sc(C)c(C)c2c(=O)o1,inactive
5,CC(C)CC1CC(=O)OC1(C)C(=O)CSc1nc2ccccc2s1 (configuration not stated),inactive
6,CCCN1C(=O)C2(C(C(=O)c3ccc(C)o3)=C(O)C(=O)N2CCCOC)c2ccccc21 (configuration not stated),inactive
7,OC(COCc1ccco1)CN1CCN(C(c2ccccc2)c2ccccc2)CC1 (configuration not stated),active: 10.4 µM
8,COc1cc([N+](=O)[O-])cc(/C=N/NC(=O)c2cc(-c3ccccc3)nc3ccccc23)c1O,"inconclusive [inhibitor, single point]"
9,OC(CC#CCN1CCCCCC1)(c1ccccc1)C1CCCC1 (configuration not stated),"inconclusive [inhibitor, partial curve, poor fit]"
10,CCOC(=O)Cc1nn(CCc2ccccn2)c(=O)c2ccccc12,"inconclusive [inhibitor, partial curve, poor fit]"
11,CCC(C(=O)NC1CCCC1)N(C(=O)Cn1nnc(-c2ccc(C)o2)n1)c1ccc(OC)c(OC)c1 (configuration not stated),active: 10.4 µM
12,OC(CNCc1ccco1)Cn1c2ccccc2c2ccccc21 (configuration not stated),active: 2.33 µM
13,CCN(CC)S(=O)(=O)c1cccc(C(=O)Nc2cc(C)on2)c1,"inconclusive [inhibitor, single point]"
14,O=C(N/N=C/c1cccs1)c1c[nH]c2ccccc12,inactive
15,CCOC(=O)N1CCN(C(=O)c2ccc(Cn3c(=S)[nH]c4cc(C(=O)OC)ccc4c3=O)cc2)CC1,"inconclusive [inhibitor, single point]"
16,C=CCC(Nc1ccccc1)c1ccc(OC)c(OC)c1 (configuration not stated),"inconclusive [inhibitor, partial curve]"
17,O=C(Nc1ccc(F)cc1F)Nc1sccc1-c1nc2ccccc2s1,"inconclusive [inhibitor, single point]"
18,O=C1NN=C(c2ccc(Cl)cc2)CC1c1c[nH]c2ccccc12 (configuration not stated),"inconclusive [inhibitor, single point]"
19,O=C(c1ccsc1)N1CCCC(N2CCN(c3cccc(Cl)c3)CC2)C1 (configuration not stated),"inconclusive [inhibitor, partial curve, poor fit]"
20,Cc1ccc(C)c(NS(=O)(=O)c2ccc(OCC(=O)NCc3cccnc3)cc2)c1,"inconclusive [inhibitor, partial curve, poor fit]"
21,COc1ccc(Cl)cc1NC(=O)CN(C)CC(=O)Nc1cc(OC)c(OC)c(OC)c1,active: 14.7 µM
22,Cc1c(-n2cc(C(=O)O)c(=O)c3cc(F)c(N4CCCC(O)C4)c(F)c32)c(=O)n(-c2ccccc2)n1C (configuration not stated),"inconclusive [inhibitor, partial curve, poor fit]"
23,COc1ccc(CN(Cc2cc3cc(C)ccc3[nH]c2=O)C(=O)N(C)C)cc1,"inconclusive [inhibitor, single point]"
24,COc1ccc(NC(=O)CN2C(=O)C(C)SC(C)C2=O)c(OC)c1 (configuration not stated),inactive

row,Structure (SMILES),Potency
1,O=C(NCCO)C(=O)Nc1cc2c3c(c1)CCN3C(=O)CC2,inactive
2,CCOCc1[nH]c(=S)[nH]c(=O)c1Cc1ccc(OCC)cc1,"inconclusive [inhibitor, full curve, poor fit]"
3,NC(=O)c1nsc(C(=O)N(CCCN2CCOCC2)C(C(=O)NC2CCCCC2)c2ccc(Cl)cc2)c1N (configuration not stated),"inconclusive [inhibitor, partial curve]"
4,Cc1ccc(-n2nnnc2SCC(=O)NCC2(N3CCOCC3)CCCCC2)c(C)c1,active: 13.1 µM
5,COc1ccc2c(c1)SCC/C2=C\CN1C(=O)CCC1=O,inactive
6,CC(=O)NC(CC(=O)OCC(=O)c1c(N)n(CC(C)C)c(=O)n(C)c1=O)c1ccccc1 (configuration not stated),active: 11.7 µM
7,COc1cccc(N/C(N)=N/c2nc(C)cc(=O)[nH]2)c1,inactive
8,COc1ccccc1/C=C/C1(C(=O)NC2CCCC2)CC(=O)N1c1ccc(F)cc1 (configuration not stated),active: 10.4 µM
9,CN(C)C(=O)C(CCN1CCC(O)(c2ccc(Cl)cc2)CC1)(c1ccccc1)c1ccccc1,active: 2.39 µM and active: 2.94 µM
10,CN(C)c1ccnc2sc(C(=O)c3ccc(Br)cc3)c(N)c12,inactive
11,CN(c1ccccc1)S(=O)(=O)c1cccc(NC(=O)Cc2c(F)cccc2Cl)c1,inactive
12,CCOC(CCn1c(SCc2ccc([N+](=O)[O-])cc2)nc2ccccc2c1=O)OCC,"inconclusive [inhibitor, single point]"
13,CC(C)=NNC(=O)C1=NNC(=O)C1,"inconclusive [inhibitor, single point]"
14,Cc1nn(C(=O)/C(C#N)=C/N(C)C)c(C)c1C,"inconclusive [inhibitor, partial curve, poor fit]"
15,COc1ccc(NC(=S)N2CCC(NC(=O)c3ccco3)CC2)cc1,inactive
16,Cc1cccc(NC(c2ccc(C)s2)c2ccc3ccc(C)nc3c2O)n1 (configuration not stated),"inconclusive [inhibitor, single point]"
17,CCCCn1c(N)c(N(Cc2ccccc2OC)C(=O)COc2ccccc2OC)c(=O)[nH]c1=O,"inconclusive [inhibitor, single point]"
18,CC1CCC(C(C)C)C(OCC(O)CNC(C)C)C1 (configuration not stated),"inconclusive [inhibitor, full curve]"
19,CCc1cc(=O)oc2c3c(cc(OCC(=O)NC4CC4)c12)OC(C)(C)CC3,"inconclusive [inhibitor, partial curve]"
20,CCN(CC)c1nc(Oc2ccc(C(=O)NN)cc2)nc(Oc2ccc(C(=O)NN)cc2)n1,active: 9.28 µM
21,Cc1cc(C)c(C#N)c(SC(F)F)n1,inactive
22,CCCCCCNC(=O)c1ccc(Br)o1,"inconclusive [inhibitor, single point]"
23,CC(NC(=O)/C=C/c1ccco1)c1nc2ccccc2n1Cc1ccccc1F (configuration not stated),"inconclusive [inhibitor, partial curve, poor fit]"
24,COC(=O)c1[nH]c2ccc(C)cc2c1NC(=O)CN1CCN(C(=O)c2ccccc2)CC1,"inconclusive [inhibitor, partial curve]"

row,Structure (SMILES),Potency
1,Cc1cccc(C(=O)NNC(=O)C2CCN(C(=O)OC(C)(C)C)CC2)c1,inactive
2,CC(=O)c1cccc(S(=O)(=O)N2CCC(n3nnc4cc(F)ccc43)CC2)c1,"inconclusive [inhibitor, partial curve]"
3,O=C(NC(=S)Nc1ccc(N2CCCCC2)cc1)c1cccs1,"inconclusive [inhibitor, single point]"
4,CCn1c(=N)n(CC(O)COc2ccc(C)cc2)c2ccccc21 (configuration not stated),active: 3.7 µM
5,CCOc1ccccc1N1CCN(C(=O)CC(C)C)CC1,inactive
6,CCN(CC)CCC(c1ccc(OC)cc1)c1c(O)cc(OC)cc1OC (configuration not stated),active: 1.31 µM
7,CCn1c(/C=C2\C(=O)N(C(C)C)c3ccccc32)nc2ccccc2c1=O,active: 3.7 µM
8,CCCCCC(=O)NNC1CC(=O)N(c2cccc(OCC)c2)C1=O (configuration not stated),inactive
9,C=CCn1c(NC(=O)c2ccc(C)cc2)nc2ccccc21,"inconclusive [inhibitor, single point]"
10,O=C(NC1CCCCC1)C(c1ccc2ncccc2c1)N(Cc1ccccc1)C(=O)c1cccs1 (configuration not stated),active: 10.4 µM
11,O=C(CN(c1ccccc1)S(=O)(=O)c1ccc(Cl)cc1)Nc1ccccc1C(=O)N1CCCC1,"inconclusive [inhibitor, single point]"
12,O=C(CN1CCN(C(=O)c2ccco2)CC1)Nc1cc(C(F)(F)F)ccc1Cl,active: 1.65 µM
13,O=C(CC1OC(=O)c2ccccc21)Nc1cc(S(=O)(=O)N2CCOCC2)ccc1OCC(F)(F)F (configuration not stated),"inconclusive [inhibitor, partial curve, poor fit]"
14,FC(F)(F)c1cccc(-n2c(Cn3nnc4ccccc43)n[nH]c2=S)c1,"inconclusive [inhibitor, full curve, poor fit]"
15,CC(C)NCc1cc(Br)ccc1OCc1ccccc1,inactive
16,O=c1cc(CN2CCC3(CC2)OCCO3)c2c(ccc3ccccc32)o1,"inconclusive [inhibitor, single point]"
17,COc1ccccc1NC(=S)NC(=O)c1c(-c2ccccc2Cl)noc1C,"inconclusive [inhibitor, single point]"
18,CCOc1ccc(N=Cc2c(O)n(CCc3ccc(OC)c(OC)c3)c(=O)[nH]c2=O)cc1,"inconclusive [inhibitor, partial curve]"
19,C=C1C(CCl)(CCl)C2(Cl)C(Cl)C(Cl)C1(Cl)C2(Cl)Cl (configuration not stated),active: 1.9 µM
20,Nc1nc(NC(=O)c2cccc(S(=O)(=O)N3CCCCCC3)c2)nc(-c2ccccc2)n1,"inconclusive [inhibitor, single point]"
21,CCCNC(=O)c1ccc(C2SCC(=O)N2CCc2ccccc2)cc1 (configuration not stated),inactive
22,Cc1cc(OCC(=O)Nc2ccc3oc(=O)ccc3c2)ccc1Cl,inactive
23,Cc1c(N/C=C(\Cl)C(=O)C(F)(F)F)c(=O)n(-c2ccccc2)n1C,"inconclusive [inhibitor, partial curve, poor fit]"
24,COc1cccc(-c2csc(N3CCN(CC(=O)Nc4ccc5c(c4)OCO5)CC3)n2)c1,"inconclusive [inhibitor, single point]"
